Test results from PubChem BioAssay AID2782 (National Center for Advancing Translational Sciences (NCATS), 2010).
The shares of active, inactive and inconclusive entries below differ from those in the screen. The call rests on the fitted dose curve; in most records, active means well fitted inhibition curve with a large enough effect in the polarisation, with a control signal flat (not every such curve was filed as active); inconclusive means small, poorly fitted or top-dose-only effect, or effect the other way, or a change in a side signal; inactive means no such curve, though single readings can be large or run the other way; the % refers to the polarisation. A potency beside an inconclusive call is a rough fit, not a confirmed value. A note “side channel” means that the fit belongs to a control or component signal, not to the main read-out.

Test: Confirmation of Inhibitors Targeting the Menin-MLL Interaction in MLL Related Leukemias: Competition With Texas Red Labeled MLL-derived Mutant Peptide
Details: fluorescence polarization, Texas Red MLL peptide displacement; series mostly up to 94.6 µM
In short: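 Hits from the primary screen were retested: compounds were incubated 1 hr at ambient with 200 nM menin, 50 nM Texas Red mutant peptide and 25 nM fluorescein wild-type peptide (Tris pH 7.5, BSA-supplemented buffer), then fluorescence polarization was read.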
Potency means the concentration at half of the fitted maximal effect; tags describe the fitted curve by direction and shape or compound fluorescence and quenching.

Potency, inconclusive:
CCOc1ccc(C2Nc3ccc4ccccc4c3-c3c2c(=O)oc2ccccc32)cc1 (stereo not drawn) 28.3 µM [inhibitor, full curve], CC(=O)NC1C(=O)N(CCN2CCOCC2)c2ccc(F)cc21 (stereo not drawn) 7.96 µM [inhibitor, full curve], CC(=O)N1CCCc2cc(S(=O)(=O)N3CCCC(C(=O)N4CCN(c5ccccc5)CC4)C3)ccc21 (stereo not drawn) 25.2 µM [fluorescent, side channel, partial curve]
